The text below walks through data of the RNAGym collection of RNA variant scans (doi:10.1101/gad.245936.114).

B1: tRNA (parent)
chain: CUCUCGGUAGCCAAGUUGGUUUAAGGCGCAAGACUUUAAUUUAUCACUACGAAAUCUUGAGAUCGGGCGUUCGACUCGCCCCCGGGAGAUUUUUUCCUCGAGCAA

Variants at the background level are over-represented here.

Variants of B1 are the subject of the data set. Put plainly: nonsense suppression (GFP-seq) (ratio to wild type); higher = more function; SUP4oc tRNA, yeast GFP reporter sort-seq. An outline of the steps:
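Each variant's nonsense suppression (GFPSEQ) is a cell-share-weighted bin median GFP/RFP relative to the unmutated parent tRNA. Yeast with genome-integrated tRNA variants from a ~3% random-mutation library, a galactose-driven GFP ochre reporter and RFP were grown in raffinose/galactose medium with 80 mg/L adenine, then sorted into GFP/RFP bins for Illumina sequencing. Variants needed ≥100 reads and ≥30 cells.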
As for CUCUCGGUGGCCAAGUUGGUUUAAGGCGCAAGACUUUAAUUUAUCACUACGAAUUCUUGAGAUCGGGCGCUCGACUCGCCCCCGGGAGAUUUUUUCCUCGAGCAA [A9G A54U U70C], the nonsense suppression was at most 0.026.
Regarding CUCUCGGUAGCCAAGGUGGUGUAAGGCGCAAGACUUUAAUUUAUCACUACGAAAUCUUGAGAUCGGGCGUUCGACUCGCCCCCGGGAGAUUUUUUCCUCGAGCAA [U16G U21G], the nonsense suppression was found to be 1.1.
In the case of CUGUCGGUAGACAAGUUGGUUUAAGGCGCAAGACUUUAAUUUAUCACUACGAAAUCCUGAGAUCGGGCGUUCGACUCGCCACCGGGAGAUUUUUUCCUCGAGCAA [C3G C11A U57C C81A] it was at most 0.026; in that of CUCUCGAUAGCCAAGUUGGUUUAAGGCUCAAGACUUUAAUUUAUCACUACGAAAUCUUGAGAUCGGGCGUUCGACUCGCCCCCGGGAGAUUUUUUCCUCGAGCAA [G7A G28U], at most 0.026.
In the case of CGCUCGGUAGCCAAGUUGGUUUAAGGCGCAAGACUUUAAUUUAUCACUACGAAAUCUUGACAUCCGGCGUUCGACUCGCCCCCGGGAGUUUUUUUCCUCGAGCAA [U2G G61C G65C A89U], the nonsense suppression is at most 0.026.
Regarding CUCUCGUUAGCCAAGUUGGUUUAAGGCGCAAGACUUUAAUUUAUCACUACGAAACCUUGAGAUCGGGUGUUCGACUCGCCCCCGGGAGCUUUUUUCCUCGAGCAA [G7U U55C C68U A89C], the nonsense suppression was at most 0.026.
The result for CUCUCGGUAGCCAGGUUGGUUUAAGGCGCAACACUUUAAUUUAUCACUACGAAAUCUUGAGAUCGGGCGUUCGACUCGCCCCCGGGAGAUUUUUUCCUCGAGCAA [A14G G32C] reads at most 0.026.
In the case of CUCUCGCUAGCCAAGUUGGUUUAAGGCGCAAGGCUUUAAUUUAUCACUACGAAAUCUUGAGAUCGGGCGUUCGAAUCGCCCCCGGGAGAUUUUUUCCUCGAGCAA [G7C A33G C75A] it was at most 0.026.
The result for CUCUCGGUAGCCAAGUUGGUUUAAGGCGCAAGACUUUAAUUUAUCACUACGAAAUCUUCAGAUCGGGCCUUCGACUCGCCCCCGGGAUAUUUUUUCCUCGAGCAA [G59C G69C G88U] reads at most 0.026; that for CCCUCGGUAGACAAGUUGGUUUAAGGAGCAAGUCUUUAAUUUAUCACUACGAAAUCUUGAGAUCGGGCGUUCGACUCGCCCCCGGGAGAUUUUUUCCUCGAGCAA [U2C C11A C27A A33U], at most 0.026; that for CUCUCGGUAGCCAGGUUGGUUUAAGGCGCAAGACUUUAAUUUAUCACUACGAAGUCUUGAGAUCGGGCGUUCGACUCGCCCCCGGAAGAUUUUUUCCUCGAGCAA [A14G A54G G86A], at most 0.026.
CUCUCGGUAGCCGAGUUGGUUUAAGGCGCAAGACUUUAAUUUAUCACUACGAAAUCUUGAGAUCGGGCGUUGGACUCGCCCCCGGGAGAUUUUUUCCUCGAGCAA [A13G C72G]: the nonsense suppression was at most 0.026.
In the case of CUCUCGGUAGCCAAGUAGGUUUAAGGCGCAAGACUUUAAUUUAUCACUACGAAAUCUCGUGAUCGGGCGUUCCACUCGCCCCCGGGAGAUUUUUUCCUCGAGCAA [U17A U58C A60U G73C] it was at most 0.026; in that of CACUCGGUAGCCAAGUUGGUGUAAGGCGCAAGACUUUAAUUUAUCACUACGAAAUCUUGAGAUCGGGCGUUCGACUCGACCCGGGGAGAUUUUUUCCUCGAGCAA [U2A U21G C79A C83G], at most 0.026.
The result for CUCUCGGUAGCCAAGUUGGUUUAAGGUGCAAGACUUUAAUUUAUCACUACGAAACAUUGAGAUCGGGCGUUCGACUCGCCCCCGGGAUAUUUUUUCCUCGAGCAA [C27U U55C C56A G88U] reads at most 0.026; that for CUCUCGGUAGCCGAGUUGGUUUAAGGCGGAAGACUUUAAUUUAUCACUACGAAAUCUUGAUAUCGGGCGGUCGACUCGCCCCCGGGAGAUUUUUUCCUCGAGCAA [A13G C29G G61U U70G], at most 0.026; that for CUCUCGGGAGCCAAGUUGGUCUAAGGCGCAGGACCUUAAUUUAUCACUACGAAAUCUUGAGAUCGGGCGUUCGACUCGCACCCGGGAGAUUUUUUCCUCGAGCAA [U8G U21C A31G U35C C80A], at most 0.026.
As to CUCUCGGUAGCCAAGUUGGUUUAAGCCGCAAGUGUUUAAUUUAUCACUACGAAAUCUUGAGAUCGGGCGUUUGACUCGCCCCCGGGAGAUUUUUUCCUCGAGCAA [G26C A33U C34G C72U], the nonsense suppression is at most 0.026.
The result for CUCUCGGUAGCCAAGUUGGAUUAAGGCGCAAGACUUUAAUUUAUCACUACGAAAUCUUGAGAUCGGGCGUGCGACUCGCCCCCGGGAGAUUUUUUCCUCGAGCAA [U20A U71G] reads at most 0.026; that for GUCUCGCUAGCCAAGUUGGUUUAAGGCGCUAGACUUUAAUUUAUCACUACGAAAUCUUGAGAUCGGGCGUUCGACUCGCCCCCGGGAGAUUUUUUCCUCGAGCAA [C1G G7C A30U], at most 0.026.
In the case of CUCCCGGUAGCCAAGUUGGUUUAAGGCGCACGACGUUAAUUUAUCACUACGAAAUCUUGAGAUCGGGCGUGCGACUCGCCCCCGGGAGAUUUUUUCCUCGAGCAA [U4C A31C U35G U71G] it was at most 0.026; in that of CUCUCGGUAGCCAAGUUGCUUUAAGGCGCAAGACUUUAAUUUAUCACUACGAAAUCUUGAGAACGGGCGUUCGACUCGCCCCCGGGAGAUUUUUUCCUCGAGCAA [G19C U63A], at most 0.026; in that of CUCUCGGUAGCCAAGUUGGUUGAAGGCGCAAGAAUUUAAUUUAUCACUACGAAAUUUUGAGAUCGGGCGUUCGACUCGCCCCCGGGAGAUUUUUUCCUCGAGCAA [U22G C34A C56U], at most 0.026.
The result for CUCUCGGUCGCCAAGUUGGUUUAAGGCGCAAGACUUUAAUUUAUCACUACGAAAUCUUGAGAUCGGGCGUUCGACACGCCCCCGGGAGAUUUUUUCCUCGAGCAA [A9C U76A] reads at most 0.026; that for CUCUCGGUAGCCAAGUUGCUUUAAGGCGCAAGACUUUAAUUUAUCACUACGAAAUCUUGAGAUCGGGCGUUCGACUCGCACCCGGGAGAUUUUUUCCUCGAGCAA [G19C C80A], at most 0.026.
With GUCUCGGUAGCCAAGUUGGUUUAAGGCGCAAGACUUUAAUUUAUCACUACGAAAUCUUGAGAUCCGGCGUUCGACUCGCCCUCGGGAGAUUUUUUCCUCGAGCAA [C1G G65C C82U], the nonsense suppression is at most 0.026.
For the variant CUCUCGGUAGCCAAGUUGGUUUAAGGCGCAAGACUUUAAUUUAUCACUACGAAAUCUUGAGAUCCGGCGUGCGACUCGCCCCCGGGAGAUUUUUUCCUCGAGCAA [G65C U71G], the nonsense suppression is at most 0.026.
